{
  "source": "PubChem BioAssay AID463173",
  "about": "(ICCB-Longwood Screening Facility, Harvard Medical School, 2010)",
  "note": "About 1,700 (3.3%) of roughly 52,000 compounds were called active. No stated cut-off is given here; in the data, active means survival mostly below about 52% (no sharp cut-off); inactive means mostly above about 56%. The list shows a part of the results.",
  "data": [
    {"test_system": "Wild type", "test": "S. aureus survival, RN4220 and DeltatarO strains – OD600, teichoic acid synthesis inhibitors, primary screen (AID 463173)", "conditions": "S. aureus RN4220 wild type/DeltatarO growth, OD600, 18 h, active compounds read low, screened at 18.75 µg/mL (by protocol)", "values": [
      {"smiles": "Cc1cccc(CN2C(=O)c3ccccc3Sc3ccc(C(=O)NCCCN4CCOCC4)cc32)c1", "survival": "inactive: 32%"},
      {"smiles": "CC1CCN(c2nc3ccccc3nc2C(F)(F)F)CC1", "survival": "inactive: 78%"},
      {"smiles": "Cc1ccc2ncc(C(=O)c3ccc(C)c(C)c3)c(S(=O)(=O)c3ccccc3)c2c1", "survival": "inactive: 95%"},
      {"smiles": "CCOc1cccc(C2c3c(oc4ccc(F)cc4c3=O)C(=O)N2c2cc(C)ccn2)c1", "note": "(stereo unspecified)", "survival": "inactive: 128%"},
      {"smiles": "O=C(CN(C(=O)c1ccc(Cl)nc1)c1ccc2c(c1)OCCO2)NCc1ccco1", "survival": "inactive: 91%"},
      {"smiles": "C=CCN1C(=O)C2C(C(=O)NC)C3C=CC2(O3)C1C(=O)NC1CCCCC1", "note": "(stereo unspecified)", "survival": "inactive: 105%"},
      {"smiles": "CCN(CC)S(=O)(=O)c1nnc(NC(=O)c2ccc(C)cc2)s1", "survival": "inactive: 67%"},
      {"smiles": "O=C(NC1CCN(CC(=O)N2CCOCC2)CC1)C1CCCCC1", "survival": "inactive: 97%"},
      {"smiles": "O=C(C1CC(c2ccccc2O)=NO1)N1CCCC1", "note": "(stereo unspecified)", "survival": "inactive: 108%"},
      {"smiles": "COc1ccccc1C1C(C(=O)Nc2ccccc2)=C(C)Nc2nc(-c3ccccc3)nn21", "note": "(stereo unspecified)", "survival": "inactive: 80%"},
      {"smiles": "CCOc1ccccc1C(=O)N(C)c1ccccc1", "survival": "inactive: 109%"},
      {"smiles": "COc1ccccc1N1CCN(Cc2nc(-c3cc(OC)c(OC)c(OC)c3)no2)CC1", "survival": "inactive: 120%"},
      {"smiles": "CC1CCCCN1CCCNC(=O)Cn1ncc2c3ccccc3n(Cc3ccccc3)c2c1=O", "note": "(stereo unspecified)", "survival": "inactive: 89%"},
      {"smiles": "O=c1c2ccccc2nc(SCCN2CCCCC2)n1CC1CCCO1", "note": "(stereo unspecified)", "survival": "inactive: 103%"},
      {"smiles": "CC(=O)N1CCc2cc(S(=O)(=O)NC(Cc3ccccc3)C(=O)Nc3cc(C)cc(C)c3)ccc21", "note": "(stereo unspecified)", "survival": "inactive: 75%"},
      {"smiles": "COc1ccc(CCN2C(=O)CN(C3CCCCCC3)C(=O)C2c2ccc(Cl)cc2)cc1OC", "note": "(stereo unspecified)", "survival": "inactive: 55%"},
      {"smiles": "Cc1ccc(NC(=O)CSc2nc3n[nH]c(C)c3c(=N)n2-c2ccccc2C)cc1C", "survival": "inactive: 90%"},
      {"smiles": "CCN(Cc1ccccc1)C(=O)c1cn(-c2cccc(OC)c2)c(=O)c2ccccc12", "survival": "inactive: 82%"},
      {"smiles": "Cc1ccc(Cl)cc1N1CCN(C(=O)CCc2nnc3n(C)c(=O)c4ccccc4n23)CC1", "survival": "inactive: 76%"},
      {"smiles": "O=C(Cn1ncc2c3ccccc3n(Cc3ccccc3)c2c1=O)NCCCN1CCCCC1", "survival": "inactive: 84%"},
      {"smiles": "COc1ccc(-c2cc(C(=O)Oc3ccc(C#N)cc3)no2)cc1", "survival": "inactive: 105%"},
      {"smiles": "COc1ccc(CNC(=O)C(CC(C)C)NS(=O)(=O)c2ccc3c(c2)CCN3C(C)=O)cc1", "note": "(stereo unspecified)", "survival": "inactive: 79%"},
      {"smiles": "O=C(O)c1ccc(CN2CCCCC2)cc1", "survival": "inactive: 92%"},
      {"smiles": "C=C(C)c1cccc(C(C)(C)NC(=O)NC2CC(C)(C)NC(C)(C)C2)c1", "survival": "inactive: 108%"},
      {"smiles": "COc1ccc(Nc2nnc(-n3nc(C)cc3C)c3ccccc23)cc1", "survival": "inactive: 89%"},
      {"smiles": "O=C(NCCOCCn1c(=O)oc2ccccc21)Nc1ccc(F)cc1F", "survival": "inactive: 81%"},
      {"smiles": "CCCc1cc(=O)[nH]c(SCc2nc(-c3ccccc3)no2)n1", "survival": "active: -2%"},
      {"smiles": "O=S1(=O)c2ccccc2N(Cc2ccc(F)cc2)c2ccccc21", "survival": "inactive: 73%"},
      {"smiles": "CCOC(=O)Cn1nnnc1C(C(C)C)N(Cc1ccc(F)cc1)Cc1cc2cc3c(cc2[nH]c1=O)OCO3", "note": "(stereo unspecified)", "survival": "inactive: 111%"},
      {"smiles": "Cc1ccc(C2=NNC(C(O)C(O)C(O)C(O)CO)S2)cc1", "note": "(stereo unspecified)", "survival": "inactive: 105%"},
      {"smiles": "CCCSCCCNC(=O)c1sc2nc(C)cc(C)c2c1-n1cccc1", "survival": "inactive: 95%"},
      {"smiles": "COc1cccc(NCc2nnc3n2CCCCC3)c1", "survival": "inactive: 83%"},
      {"smiles": "Cc1ccc(-c2noc(-c3cccnc3N(C)Cc3ccc(Cl)cc3)n2)cc1", "survival": "inactive: 84%"},
      {"smiles": "Cc1cccc(NC(=O)CSc2nc3ccc(NC(=O)CCc4ccccc4)cc3s2)c1", "survival": "inactive: 91%"},
      {"smiles": "Cc1ccc(-c2nc(CS(=O)(=O)CC(=O)N3CCN(c4ccccc4)CC3)c(C)o2)cc1", "survival": "inactive: 90%"},
      {"smiles": "COc1ccc(CNC(=O)c2cc3c(=O)n(Cc4ccc(OC)cc4)ccc3nc2C)cc1", "survival": "inactive: 53%"},
      {"smiles": "COc1cc(Br)cc2cc(S(=O)(=O)c3ccccc3)c(=O)oc12", "survival": "inactive: 72%"},
      {"smiles": "CCOc1ccc(NC(=O)CN(c2ccc(C)cc2)S(=O)(=O)c2cccs2)cc1", "survival": "inactive: 80%"},
      {"smiles": "CCCOc1ccc(CN2C(=O)C(=O)c3cccc(C)c32)cc1", "survival": "inactive: 38%"},
      {"smiles": "Cc1ccc(-n2nc(C)c3c(C)c(CCC(=O)NCc4ccc(Cl)cc4)c(C)nc32)cc1", "survival": "inactive: 102%"},
      {"smiles": "COc1cccc(CNC(=O)c2ccc3nc(CCc4ccccc4)oc3c2)c1OC", "survival": "inactive: 89%"},
      {"smiles": "O=C(NC12CCC(O)C(SC1)C2O)c1ccccc1", "note": "(stereo unspecified)", "survival": "inactive: 119%"},
      {"smiles": "CCc1cccc(C)c1Nc1c(-c2ccc(N(C)C)cc2)nc2cnccn12", "survival": "inactive: 42%"},
      {"smiles": "CCOc1ccc(CNCCSc2nnnn2C)cc1", "survival": "inactive: 73%"},
      {"smiles": "CCc1ccc(C(=O)c2cn(CC(=O)Nc3cc(OC)cc(OC)c3)c3ccc(CC)cc3c2=O)cc1", "survival": "inactive: 128%"},
      {"smiles": "COC(=O)c1ccccc1NC(=O)Cn1c(=O)n(-c2ccc(C)cc2)c(=O)c2ccccc21", "survival": "inactive: 82%"},
      {"smiles": "COc1ccc(OCC(=O)Nc2cc(-c3nc4ccccc4o3)ccc2Cl)cc1", "survival": "inactive: 104%"},
      {"smiles": "COc1ccc(CNCC(O)c2nnn(C)n2)cc1OC", "note": "(stereo unspecified)", "survival": "inactive: 108%"},
      {"smiles": "CCOc1ccc(NC(=O)Cn2nc(CC)n3c(cc4sccc43)c2=O)cc1", "survival": "inactive: 88%"},
      {"smiles": "Cc1ccc2c(c1)c1c(c(=O)n(-c3cccc(Cl)c3)c(=O)n1CC(N)=O)n2C", "survival": "inactive: 64%"},
      {"smiles": "COc1cc(Nc2nc3c(S(=O)(=O)c4cccc(Cl)c4)nnn3c3ccsc23)cc(OC)c1", "survival": "inactive: 126%"},
      {"smiles": "O=C(Nc1nnc(C(F)(F)F)s1)c1ccccc1", "survival": "inactive: 74%"},
      {"smiles": "CCN(CC(O)COc1ccc(OCC(O)CN(CC)C2CCCCC2)cc1)C1CCCCC1", "note": "(stereo unspecified)", "survival": "inactive: 109%"},
      {"smiles": "Cc1ccc(NC(=O)CSc2nc3nccnc3c(=O)n2CCc2c[nH]c3ccccc23)cc1C", "survival": "inactive: 77%"},
      {"smiles": "CCC(=O)N1CCc2cc(S(=O)(=O)NCCC(=O)Nc3ccc(C)cc3C)ccc21", "survival": "inactive: 84%"},
      {"smiles": "O=C1Nc2ccccc2C1Cc1ccc(Br)cc1", "note": "(stereo unspecified)", "survival": "inactive: 81%"},
      {"smiles": "Cc1ccc(NC(=O)CN2C(=O)c3ccccc3Sc3ccc(C(=O)N4CCOCC4)cc32)cc1C", "survival": "inactive: 72%"},
      {"smiles": "CC1CCc2noc(NC(=O)c3ccc([N+](=O)[O-])cc3)c2C1", "note": "(stereo unspecified)", "survival": "inactive: 113%"},
      {"smiles": "Cc1ccnc(SCC(=O)Nc2ccccc2)n1", "survival": "inactive: 102%"},
      {"smiles": "Cc1ccccc1OCCSc1nc2ccc(NC(=O)c3ccco3)cc2s1", "survival": "inactive: 57%"},
      {"smiles": "COc1ccc(C2C(C#N)=C(N)Oc3cc4c(cc32)OCO4)cc1", "note": "(stereo unspecified)", "survival": "inactive: 110%"},
      {"smiles": "Cc1ccccc1-n1nc(C)c2c1CC(C)(C)CC2=O", "survival": "inactive: 112%"},
      {"smiles": "CCOc1ccc2nc(Cl)c(CN(Cc3ccco3)C(=O)c3ccco3)cc2c1", "survival": "inactive: 120%"},
      {"smiles": "CC(=O)c1cccc(NC(=O)c2cc3sc(Cl)cc3n2C)c1", "survival": "inactive: 95%"},
      {"smiles": "Oc1c(C(c2ccc(Cl)cc2Cl)N2CCN(Cc3ccccc3)CC2)sc2nc(-c3ccco3)nn12", "note": "(stereo unspecified)", "survival": "inactive: 73%"},
      {"smiles": "CCC(Sc1nc2ccncc2[nH]1)C(=O)Nc1cc(C)ccc1C", "note": "(stereo unspecified)", "survival": "inactive: 125%"},
      {"smiles": "CCCn1c(=N)c(C(=O)NCc2ccco2)cc2c(=O)n3cc(C)ccc3nc21", "survival": "inactive: 69%"},
      {"smiles": "Cc1ccc(CNC(=O)Cn2ccn(-c3ccc(F)c(F)c3)c(=O)c2=O)cc1", "survival": "inactive: 78%"},
      {"smiles": "CCn1cc(/C=C(\\NC(=O)c2ccccc2Cl)C(=O)NCCCn2ccnc2)c2ccccc21", "survival": "inactive: 121%"},
      {"smiles": "Cc1ccc(C2N3CC4(C)CN2CC(c2ccccc2)(C3)C4=O)cc1", "note": "(stereo unspecified)", "survival": "inactive: 93%"},
      {"smiles": "COCCNC(=O)CCCn1c(SCc2ccccc2C)nc2c(sc3ccccc32)c1=O", "survival": "inactive: 146%"},
      {"smiles": "CCC(=O)Nc1ccc(-c2nc3ncccc3o2)cc1C", "survival": "inactive: 85%"},
      {"smiles": "CCOc1ccc(C(=O)Nc2ccc(C(=O)OCc3cc(=O)n4c(C)csc4n3)cc2)cc1", "survival": "inactive: 85%"},
      {"smiles": "Cc1ccc(CNC(=O)c2ccc(N3Cc4ccccc4Oc4ncccc43)s2)cc1", "survival": "inactive: 90%"},
      {"smiles": "CCOCCCNC(=O)C(c1ccc(Cl)cc1)N(Cc1ccc2c(c1)OCO2)C(=O)c1ccc(NC(C)=O)cc1", "note": "(stereo unspecified)", "survival": "inactive: 117%"},
      {"smiles": "COc1ccccc1CNS(=O)(=O)c1c(C)nc2sc(C)cn2c1=O", "survival": "inactive: 83%"},
      {"smiles": "O=C(O)c1ccc2c(c1)N(Cc1ccc(F)cc1)C(=O)c1ccccc1S2=O", "note": "(stereo unspecified)", "survival": "inactive: 82%"},
      {"smiles": "Cc1cc(NC(=O)c2cc(-c3ccc(F)cc3)on2)nn1Cc1ccc(Cl)cc1", "survival": "inactive: 87%"},
      {"smiles": "COc1ccccc1CNc1ncnc2c1nc1n2CCCC1", "survival": "inactive: 77%"},
      {"smiles": "Cc1ccc(Cl)cc1NC(=O)c1cc(S(=O)(=O)N2CCOCC2)cn1C", "survival": "inactive: 84%"},
      {"smiles": "COC(=O)c1cc(NC(=O)Cn2ncc3c([nH]c4ccccc43)c2=O)cc(C(=O)OC)c1", "survival": "inactive: 53%"},
      {"smiles": "O=C(Cn1c(=O)c2cccn2c2ccc(F)cc21)Nc1cccc(F)c1", "survival": "inactive: 81%"},
      {"smiles": "CCCCN(C)C(=O)C1CCC(Cn2c(=O)[nH]c3ccsc3c2=O)CC1", "note": "(stereo unspecified)", "survival": "active: -2%"},
      {"smiles": "Cc1ccc2c(CC(=O)Nc3ccc(S(=O)(=O)N4CCCC(C)C4)cc3)coc2c1", "note": "(stereo unspecified)", "survival": "inactive: 68%"},
      {"smiles": "CC1CCN(S(=O)(=O)c2ccc3c(c2)N(CC(=O)NCCN(C)C)C(=O)CS3)CC1", "survival": "inactive: 87%"},
      {"smiles": "O=C(NCCc1ccccc1)c1ccc2c(c1)CCN2S(=O)(=O)c1ccc(Cl)cc1", "survival": "inactive: 114%"},
      {"smiles": "CC1(C)CC(N=Cc2c(O)[nH]c(=O)[nH]c2=O)CC(C)(C)N1", "survival": "inactive: 95%"},
      {"smiles": "OC(c1ccccc1)c1nc2ccccc2n1Cc1c(F)cccc1Cl", "note": "(stereo unspecified)", "survival": "inactive: 82%"},
      {"smiles": "Fc1ccc(-n2nc(-c3ccccc3)c3cnc4ccccc4c32)cc1Cl", "survival": "inactive: 138%"},
      {"smiles": "CCOc1ccc(-c2cc3c(=O)n(CC(=O)NCc4ccccc4)ccn3n2)cc1", "survival": "inactive: 73%"},
      {"smiles": "Cc1oc2ncnc(N3CCOCC3)c2c1C(=O)Nc1ccc(Br)cc1F", "survival": "inactive: 129%"}
    ]}
  ]
}
